Where “and” joins values, the source holds several entries; their conditions need not be identical. Identical values can stand only once.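 Method: 48-hour compound exposure of cells in 96-well plates, five concentrations, linear interpolation of endpoints. Here, GI50 denotes the concentration required for 50% inhibition of growth. TGI denotes the concentration required for complete inhibition of growth.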
Tested on: NCI-H322M lung
Experiment: growth of human tumour cells (NCI), 48 h

SMILES | GI50 [µM] | TGI
COP(=O)(OC)C(NC(c1ccccc1)c1ccccc1)c1ccc2c(c1)OCO2 (stereo not given) | 36.5 | > 100 µM
Cn1c(O)c(/C=N/c2ncccn2)c(=O)[nH]c1=O | – | > 100 µM
COC(C[C@H]1CCCC[C@]1(O)/C(=C\CO[Si](C(C)C)(C(C)C)C(C)C)Sc1ccccc1)OC | – | > 100 µM
CC(C)Oc1cc2c(cc1O)CC[C@@H]1[C@@H]2CC[C@]2(C)[C@@H](O)CC[C@@H]12 | – | 59.5 µM
Cc1ccc(C(CN(C)C)C(=O)c2ccccc2)cc1 (stereo not given) | 17.9 | 37.9 µM
CC(=O)NC1C(OCc2ccccc2)OC(CO)C(O)C1OCC(=O)N[C@@H](C)C(=O)N[C@H](CCC(=O)NCCCCNc1c2ccccc2nc2cccc([N+](=O)[O-])c12)C(N)=O (stereo not given in full) | – | 53.3 µM
CCCCn1c2cc(OCc3cn(-c4ccc(Cl)cc4)nn3)ccc2c2ccnc(C)c21 | 8.95 | > 33.3 µM
COc1c(O)c2c(c3cc(C(=O)N4CCc5c4c(O)c(OC)c4[nH]c(C(=O)N6CC7CC78C6=CC(=O)c6[nH]cc(C)c68)cc54)[nH]c13)CCN2C(N)=O (stereo not given) | – | 47 nM and > 100 µM and 0.0194 µg/mL
CC1=C(/C=C/C(C)=C\C=C\C(C)=C\C(=O)Nc2ccc3c(c2)OCO3)C(C)(C)CCC1 | 60.7 | > 100 µM
COC(CC1(CCNc2ccccc2)C(=O)N(COCC[Si](C)(C)C)c2ccccc21)OC (stereo not given) | – | 30.6 µM
O=C(O)Cn1ncn(NC(=O)Cc2ccccc2)c1=S | – | > 10 µM
CC1Cc2c(cc(N)nc2Br)NC1=O (stereo not given) | – | > 100 µM
CC(C)C(=O)/C=C/c1ccccc1 | – | > 100 µM
CCOC(=O)/C(C1=N[C@H](C(=O)OCC)CS1)=C(\O)c1ccccc1 | – | > 100 µM
Nc1cc2ncnc(Nc3cccc(Br)c3)c2cn1 | – | > 100 µM
CSc1nc2c(c(=O)[nH]1)N=C1c3ccccc3C(=O)C1C(c1ccc(F)cc1)N2 (stereo not given) | 13.9 | 74 µM
O=C1c2c(O)cccc2Cc2cccc(O)c21 | – | 14.5 µM
CCCCN(CCCC)C1=Nc2ccccc2-n2c(nnc2C(=O)OCC)C1 | – | > 100 µM
Clc1ccc(Cc2nc3ccccc3nc2-c2cccc(Cl)c2)cc1 | – | 28.8 µM
COC(=O)C(CCS(=O)(=O)CC(=O)C(=O)Nc1cccc(C(C)=O)c1)C(=O)OC | – | > 100 µM
NNc1nnc(-c2ccccc2)nc1Cc1ccccc1 | – | > 100 µM
Cc1cccc(C(C)(C)C)c1NC(=O)C(=O)C(C(=O)/C=C\c1ccccc1)C1OC(=O)c2ccccc21 (stereo not given) | – | > 100 µM

SMILES | GI50 [µM] | TGI
Cc1ccc(S(=O)(=O)CC2CCCn3c2c(C#N)c2ccccc23)cc1 (stereo not given) | – | > 100 µM
C/C(O)=C(\N=O)C(=O)NCCc1ccccc1 | – | > 100 µM
Cc1ccc(NC(=O)CC2C(=O)Nc3ccccc3S2=O)cc1C (stereo not given) | – | > 100 µM
Cc1cn([C@@H]2C[C@](C)(CO)N(C)O2)c(=O)[nH]c1=O | – | > 100 µM
N#C[C@H]1C(=O)C(c2nc3ccccc3[nH]2)S[C@H]1c1ccccc1 (stereo not given in full) | – | > 100 µM
C1CC[N-]CC1.C1CC[N-]CC1.C1CC[N-]CC1.C1CC[N-]CC1.[Cl][Rh][Cl] | 14.1 | 87.5 µM
CC(C)(C)N1CCC1C(N)=O (stereo not given) | > 100 | > 100 µM
CC(=O)OCC1(CNc2nc(N)ncc2C#N)CC(CCc2ccccc2)C1 (stereo not given) | – | > 100 µM
COCCN(C(=O)c1ccccc1)C1CCC(=O)c2[nH]c3ccccc3c21 (stereo not given) | – | 21.8 µM
C=C(C)C(=O)O[C@H]1CC2(CO)O[C@@H]2CC/C(COC(C)=O)=C/C2OC(=O)C(=C)[C@@H]21 (stereo not given in full) | – | > 100 µM
[Cl][Bi]([O]c1ccccn1)[O]c1ccccn1 | > 100 | > 100 µM
COC(C/C=C\C=C\CC/C=C/CC(C)/C=C/C(=C\C(=O)O)CC(=O)O)/C(C)=C\C=C(/C)C(=O)O (stereo not given) | – | > 100 µM
C=C1C(=O)O[C@H]2[C@H]1CC/C(COC(=O)NCc1cc3ccccc3[nH]1)=C\CC[C@@]1(C)O[C@@H]21 | 4.53 | 16.1 µM
Oc1ccc(/C=N\Nc2ccccn2)c(O)c1 | 0.859 | 5.38 µM
COc1cccc(OC/C(N=Cc2ccncc2)=N/NC(=O)c2ccncc2)c1 | – | > 100 µM
Cc1c(N=Nc2ccc([N+](=O)[O-])cc2)nc2scc(-c3ccccc3)n12 | – | > 100 µM
O=c1oc2ccccc2c(O)c1C(c1ccc(O)cc1)c1c(O)c2ccccc2oc1=O | – | > 100 µM
CCOC(=O)NC(OCc1ccccc1)(C(=O)OC)C(F)(F)F (stereo not given) | – | > 100 µM
Cc1c(C#N)cccc1-c1cc(-c2cn(Cc3cccc(C(C)(C)O)n3)nn2)nc(N)n1 | 81.3 | > 100 µM
CC(C)NCCNC(=O)c1ccccc1Nc1c(Cl)cccc1Cl | – | 23 µM
Cc1c(/C=N/NS(=O)(=O)c2ccccc2)no[n+]1[O-] | – | > 100 µM
Cc1cc(=O)[nH]c(NN2C(Cl)C(=O)C2c2ccco2)n1 (stereo not given) | – | > 100 µM
